Reference: PMC4336329 (PLoS ONE, 2015)
Screen size: about 310,000 compounds; about 2,200 (0.71%) showed an effect of 50% or more. The effect is printed as a negative number. The list shows a part of the results.

Target: human ether-à-go-go-related gene (hERG) potassium channel (human, UniProt Q12809)
Assay: primary screen, population patch clamp on CHO cells stably expressing hERG

Sequence of human ether-à-go-go-related gene (hERG) potassium channel (Q12809 whole entry, looked up): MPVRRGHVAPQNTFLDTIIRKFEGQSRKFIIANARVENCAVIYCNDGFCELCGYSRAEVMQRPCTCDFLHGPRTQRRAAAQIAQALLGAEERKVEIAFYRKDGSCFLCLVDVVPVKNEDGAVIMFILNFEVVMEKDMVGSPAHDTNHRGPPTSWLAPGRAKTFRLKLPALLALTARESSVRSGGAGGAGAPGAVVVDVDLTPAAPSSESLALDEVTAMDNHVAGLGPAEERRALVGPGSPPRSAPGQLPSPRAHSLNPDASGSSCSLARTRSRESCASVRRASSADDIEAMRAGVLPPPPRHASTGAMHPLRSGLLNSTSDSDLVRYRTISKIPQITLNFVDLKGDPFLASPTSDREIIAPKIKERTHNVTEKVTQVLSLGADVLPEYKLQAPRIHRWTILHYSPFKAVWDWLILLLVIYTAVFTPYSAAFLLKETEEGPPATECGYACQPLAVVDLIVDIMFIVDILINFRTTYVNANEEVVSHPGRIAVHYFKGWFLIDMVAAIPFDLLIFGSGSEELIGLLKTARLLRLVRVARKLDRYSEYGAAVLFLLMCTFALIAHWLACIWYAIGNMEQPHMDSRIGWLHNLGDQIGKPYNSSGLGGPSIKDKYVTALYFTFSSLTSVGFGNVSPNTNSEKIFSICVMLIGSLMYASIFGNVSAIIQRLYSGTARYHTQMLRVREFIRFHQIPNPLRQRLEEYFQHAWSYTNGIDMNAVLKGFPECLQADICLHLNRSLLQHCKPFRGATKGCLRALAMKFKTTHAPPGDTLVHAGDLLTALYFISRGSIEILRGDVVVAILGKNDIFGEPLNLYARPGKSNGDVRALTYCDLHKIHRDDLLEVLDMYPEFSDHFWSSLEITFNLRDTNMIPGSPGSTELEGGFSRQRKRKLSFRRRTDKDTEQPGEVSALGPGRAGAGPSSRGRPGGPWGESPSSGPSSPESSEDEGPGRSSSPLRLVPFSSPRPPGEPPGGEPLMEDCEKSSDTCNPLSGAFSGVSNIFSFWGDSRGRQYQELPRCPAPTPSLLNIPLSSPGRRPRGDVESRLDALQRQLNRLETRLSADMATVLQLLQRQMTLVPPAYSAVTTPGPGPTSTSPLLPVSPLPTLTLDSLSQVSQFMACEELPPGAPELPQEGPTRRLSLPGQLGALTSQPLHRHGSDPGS

In order of rising “hERG current change (%, negative = inhibition) at 1uM” value:
1. Cc1cccc(CCN2C(Nc3ccccc3)=NC[C@@H]2CC(C)C)c1  -46.8%
2. Cc1ccc(C)c(N2CCN(CCCNC(=O)Cn3cc4c(n3)CCC(C)C4)CC2)c1 (stereo not drawn)  -45.1%
3. CN(Cc1ccc(F)cc1)C(=O)c1cc(COc2ccc(-n3cncn3)cc2)on1  -18.4%
4. COc1cccc(CNCc2ccc(SC)cc2)c1OC  -16.2%
5. CCOc1c(C(=O)CC)cc2c(C)cc(=O)oc2c1C  -9.82%
6. CC12CCC(=O)N1C(C(=O)Nc1cc(Cl)ccc1N1CCOCC1)CS2 (stereo not drawn)  -5.07%
7. COc1ccccc1OCCC(=O)OCC(=O)Nc1cccc(Br)c1  -3.95%
8. CCCOC(=O)CCCC[C@H]1SC[C@@H](NC(=O)OC)[C@H]1NC(=O)OC  -1.35%
9. CCc1ccccc1N1CC(C(=O)Nc2cc(S(=O)(=O)N3CCCC3)ccc2Cl)CC1=O (stereo not drawn)  1.31%
10. CCOC(=O)C1=C(C)N(CCCC(=O)O)C(=O)NC1c1ccc(Br)cc1 (stereo not drawn)  2.78%
11. CCOC(=O)c1ccc(NC(=S)NC2CC(C)(C)NC(C)(C)C2)cc1  3.25%
12. CC(c1ccc(Br)cc1)N1CC23C=CC(O2)C(C(=O)O)C3C1=O (stereo not drawn)  4.18%
13. Cc1ccc(N2CN=C(c3ccccc3)NC2=S)cc1  4.49%
14. CCS(=O)(=O)n1nc(-c2ccc(C)cc2)nc1N  5.02%
15. COc1ccc(COC(=O)NNC(=O)c2ccccc2Cl)cc1  5.34%
16. CC(C)C[C@H](NC(=O)[C@H](Cc1ccccc1)n1c(=O)[nH]c2ccccc2c1=O)C(=O)N1CCC[C@@H]1C(=O)O  5.46%
17. CCc1noc(C)c1C(=O)NNC(=O)COc1ccc(C)c(C)c1  5.82%
18. COC(=O)c1cc(S(=O)(=O)Nc2cc(S(=O)(=O)N(C)C)ccc2C)oc1C  6.43%
19. COc1ccc(S(=O)(=O)N2CCOCC2)cc1NC(=O)CN1CCCCCC1  7%
20. O=C(O)CCC(=O)c1ccc2c(c1)OCCCO2  7.12%
21. Cc1ccccc1N1C(=O)CC(Nc2ccc3c(c2)OCO3)C1=O (stereo not drawn)  7.6%
22. O=C(c1ccc([N+](=O)[O-])cc1)N1CCc2ccccc21  7.69%
23. O=[N+]([O-])c1cccc(/C=N/Nc2cc(N3CCOCC3)ncn2)c1  8.22%
24. Cc1noc(C)c1COC(=O)c1cccnc1SCC(=O)Nc1ccc2c(c1)OCO2  8.42%
25. CC1CCN(C(=O)C2CCC(=O)N(Cc3ccc(Cl)cc3)C2)CC1 (stereo not drawn)  8.53%
26. COc1ccccc1OCCCCN1CCCCC1  8.59%
27. COCCCNC(=O)C(=O)N/N=C/c1ccc(OCC(=O)Nc2cccc(Cl)c2C)c(OC)c1  8.72%
28. COc1cc(/C=C/C2=CC(C)(C)NC(=S)N2)cc(OC)c1OC  8.95%
29. COc1ccccc1N1Cc2ccc(OC)c(OC)c2C1=O  9.06%
30. O=C(NCCNc1ccc([N+](=O)[O-])cc1)c1ccccc1F  9.3%
31. Cc1nn(-c2ccccn2)c(N)c1N=O  10.3%
32. CC(C)C[C@H]1CN=C(N(C)C)N1CC1CCCC1  11.1%
33. Cc1ccc(C(=O)NNC(=S)NC(=O)COc2ccccc2)cc1  11.2%
34. Cc1csc(NC(=O)c2ccccc2[N+](=O)[O-])n1  11.5%
35. Cc1ccc(C)c(NC(=O)N2CCc3ccccc3C2)c1  11.6%
36. O=C(N/N=C/c1ccco1)c1[nH]ncc1Br  11.8%
37. CC(Sc1n[nH]c(N)n1)C(=O)Nc1ccccc1-c1ccccc1 (stereo not drawn)  13.1%
38. CCOc1c(C)cc(S(=O)(=O)NCc2ccccn2)c(C)c1C  14.6%
39. CC1(C)CC(=O)C=C(c2ccc3ccccc3c2)C1  15.7%
40. O=C1C2CCN(CC2)C12CC2c1ccc(C(F)(F)F)cc1 (stereo not drawn)  15.9%
41. COc1ccc(Cc2nc(-c3ccc(NC(=O)c4cccnc4)cc3)no2)cc1  16.8%
42. OC1/C(=C/c2ccc(C(F)(F)F)cc2)N2CCC1CC2 (stereo not drawn)  17.8%
43. CC(C)CC1NC(=O)N(CC(=O)Nc2cc(F)ccc2F)C1=O (stereo not drawn)  19.4%
44. Cn1cnnc1SC(C(=O)Nc1cc(Cl)cc(Cl)c1)c1ccccc1 (stereo not drawn)  20.4%
45. O=C(Nc1ccon1)c1ccc(S(=O)(=O)N2CCOCC2)cc1  24.2%
